Results published in the supplement of paper PMC4166925.
± gives the standard deviation of the averaged measurements. Whole data set: some 33,000 sequences, median “E-score (dimensionless, -0.5 to 0.5)” near -0.049, cut for the highest 2% near 0.37. Some of the results follow.

tested on: T1, PmTbr T-box DNA-binding domain (GST fusion); assay: PBM E-score of 8-mer (E-score (dimensionless, -0.5 to 0.5)); Tbr is Tbrain of the sea star Patiria miniata (Pm) or the sea urchin Strongylocentrotus purpuratus (Sp); higher = stronger binding preference; most listed sequences are background and not binding sites; details: the construct has about 5 more residues each side
T1 sequence: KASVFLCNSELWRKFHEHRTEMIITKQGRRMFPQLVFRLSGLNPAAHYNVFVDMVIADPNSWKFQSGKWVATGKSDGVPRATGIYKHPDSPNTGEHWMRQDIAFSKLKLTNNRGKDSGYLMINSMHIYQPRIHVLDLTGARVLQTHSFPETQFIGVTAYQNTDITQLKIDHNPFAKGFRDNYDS
Description: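 Universal protein-binding microarray (Agilent AMADID 016060, 60-bp probes with a 35-bp variable region) incubated with 200 nM GST-fused Patiria miniata Tbr T-box DNA-binding domain (residues 272-466) in PBS pH 7.5. Scored for every ungapped 8-mer (given with its reverse complement) by the Universal PBM Analysis Suite as E-score (modified Wilcoxon-Mann-Whitney enrichment, range -0.5 to 0.5; >0.45 counts as bound) and Z-score of median probe intensity. Two replicate arrays (datasets 1 and 2).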
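Also: 200 nM protein in PBS on universal arrays averaged over duplicate arrays.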

In order of rising “PBM E-score of 8-mer” value:
1. AACCGGCT  -0.286 ± 0.073
2. GCTTAAAA  -0.264 ± 0.096
3. AGATGGTC  -0.258 ± 0.0079
4. GCTTGGAC  -0.253 ± 0.029
5. ATGGGGCA  -0.25 ± 0.054
6. AGGAGGTC  -0.247 ± 0.02
7. AACTACGG  -0.2468 ± 0.0016
8. CGGCGGTC  -0.245 ± 0.078
9. GGATCTAC  -0.243 ± 0.018
10. AATGAGCG  -0.238 ± 0.03
11. CTCGGGGA  -0.232 ± 0.058
12. CAGCCCAG  -0.223 ± 0.039
13. AAATTTGA  -0.221 ± 0.11
14. AACTGACC  -0.216 ± 0.038
15. ATACTGCC  -0.212 ± 0.0077
16. GCCCAAGC  -0.211 ± 0.037
17. GTAAAATA  -0.199 ± 0.081
18. CCCAATGA  -0.199 ± 0.0049
19. CTCCAGAA  -0.192 ± 0.047
20. GGAGATCA  -0.174 ± 0.09
21. TCGAAAGA  -0.172 ± 0.05
22. CCCATGTC  -0.15 ± 0.056
23. CTAAGCAC  -0.147 ± 0.06
24. AAGACATA  -0.145 ± 0.047
25. CCATCCTA  -0.144 ± 0.041
26. TAGTAAGA  -0.139 ± 0.021
27. AACAACCA  -0.135 ± 0.035
28. CCGCCGAA  -0.122 ± 0.0029
29. AACGCTCT  -0.119 ± 0.048
30. CTCCATCC  -0.115 ± 0.11
31. CTTACAAG  -0.113 ± 0.063
32. GGTATGGA  -0.109 ± 0.026
33. CACGGGAC  -0.104 ± 0.02
34. ATACAAGA  -0.104 ± 0.013
35. ACCCAGGC  -0.0912 ± 0.049
36. CAGTGTCC  -0.0875 ± 0.02
37. CATTTCCA  -0.0843 ± 0.069
38. AAAACTTG  -0.0815 ± 0.039
39. CGATCTTC  -0.0801 ± 0.0027
40. AGGCTAAC  -0.0755 ± 0.026
41. CGTATAAC  -0.0754 ± 0.027
42. CTAAATTA  -0.0739 ± 0.067
43. GCAGCCGC  -0.0665 ± 0.11
44. CAACTGAA  -0.0664 ± 0.016
45. GGACATAA  -0.0609 ± 0.025
46. GCGTCCAC  -0.0543 ± 0.06
47. CGGGCCAC  -0.0526 ± 0.024
48. ATAGCTTG  -0.0506 ± 0.038
49. ATTAACCC  -0.0386 ± 0.022
50. CCCCGTTA  -0.029 ± 0.04
51. ACGCTGAT  -0.0269 ± 0.014
52. GTACTGAC  -0.0242 ± 0.035
53. CGATGTAA  -0.0196 ± 0.022
54. AGTATTAA  -0.0194 ± 0.0096
55. GAAACAAC  -0.0103 ± 0.033
56. TAGAATCA  -0.00571 ± 0.02
57. ACTTTCTA  0.00172 ± 0.072
58. ATAATAAG  0.00809 ± 0.057
59. GCGATTCC  0.0122 ± 0.027
60. GACTAGGC  0.0128 ± 0.064
61. ACATCTAT  0.022 ± 0.055
62. CGATATCC  0.026 ± 0.019
63. CTCCCTTA  0.0309 ± 0.049
64. ACGGCGTC  0.0764 ± 0.011
65. CGCGGGAA  0.093 ± 0.075
66. ACATACCT  0.09862 ± 0.00018
67. GGTCGCCA  0.122 ± 0.015
68. CGAGCTGC  0.14 ± 0.019
69. AATGCGAC  0.153 ± 0.019
70. CATCACGG  0.156 ± 0.018
71. CTCGCCCC  0.166 ± 0.032
72. ACGCGTAG  0.175 ± 0.045
73. CCTCACTC  0.179 ± 0.0022
74. AATTGGTG  0.18 ± 0.035
75. AACAAGTC  0.191 ± 0.0086
76. GTCAGGAA  0.196 ± 0.0025
77. GTGAGTTA  0.202 ± 0.017
78. ACTAGTGA  0.204 ± 0.058
79. AGTGATGA  0.224 ± 0.015
80. AGTAGCGC  0.238 ± 0.017
81. CTCGCAAG  0.2452 ± 0.001
82. CCACCTTA  0.246 ± 0.036
83. AGCACCCC  0.253 ± 0.013
84. GTGTTGTA  0.326 ± 0.011
85. AAGGTGCT  0.441 ± 0.0066
86. CAACACCC  0.444 ± 0.015
